Reference: publication PMC4336329 (PLoS ONE, 2015)
The whole screen tested about 310,000 compounds, of which about 14,000 (4.5%) showed an effect of 50% or more. Effects have a minus sign here. This is one part of the list. Where a SMILES comes first, the peptide text is derived from it. The star is where a group is joined. Boc = CC(C)(C)OC(=O)*

What follows are compounds tested against human ether-à-go-go-related gene (hERG) potassium channel (human, UniProt Q12809) (assay: primary screen, population patch clamp on CHO cells stably expressing hERG).
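Note: peak tail current of the secondary pulse compared with the same well before compound.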

human ether-à-go-go-related gene (hERG) potassium channel, sequence (Q12809 whole entry, looked up): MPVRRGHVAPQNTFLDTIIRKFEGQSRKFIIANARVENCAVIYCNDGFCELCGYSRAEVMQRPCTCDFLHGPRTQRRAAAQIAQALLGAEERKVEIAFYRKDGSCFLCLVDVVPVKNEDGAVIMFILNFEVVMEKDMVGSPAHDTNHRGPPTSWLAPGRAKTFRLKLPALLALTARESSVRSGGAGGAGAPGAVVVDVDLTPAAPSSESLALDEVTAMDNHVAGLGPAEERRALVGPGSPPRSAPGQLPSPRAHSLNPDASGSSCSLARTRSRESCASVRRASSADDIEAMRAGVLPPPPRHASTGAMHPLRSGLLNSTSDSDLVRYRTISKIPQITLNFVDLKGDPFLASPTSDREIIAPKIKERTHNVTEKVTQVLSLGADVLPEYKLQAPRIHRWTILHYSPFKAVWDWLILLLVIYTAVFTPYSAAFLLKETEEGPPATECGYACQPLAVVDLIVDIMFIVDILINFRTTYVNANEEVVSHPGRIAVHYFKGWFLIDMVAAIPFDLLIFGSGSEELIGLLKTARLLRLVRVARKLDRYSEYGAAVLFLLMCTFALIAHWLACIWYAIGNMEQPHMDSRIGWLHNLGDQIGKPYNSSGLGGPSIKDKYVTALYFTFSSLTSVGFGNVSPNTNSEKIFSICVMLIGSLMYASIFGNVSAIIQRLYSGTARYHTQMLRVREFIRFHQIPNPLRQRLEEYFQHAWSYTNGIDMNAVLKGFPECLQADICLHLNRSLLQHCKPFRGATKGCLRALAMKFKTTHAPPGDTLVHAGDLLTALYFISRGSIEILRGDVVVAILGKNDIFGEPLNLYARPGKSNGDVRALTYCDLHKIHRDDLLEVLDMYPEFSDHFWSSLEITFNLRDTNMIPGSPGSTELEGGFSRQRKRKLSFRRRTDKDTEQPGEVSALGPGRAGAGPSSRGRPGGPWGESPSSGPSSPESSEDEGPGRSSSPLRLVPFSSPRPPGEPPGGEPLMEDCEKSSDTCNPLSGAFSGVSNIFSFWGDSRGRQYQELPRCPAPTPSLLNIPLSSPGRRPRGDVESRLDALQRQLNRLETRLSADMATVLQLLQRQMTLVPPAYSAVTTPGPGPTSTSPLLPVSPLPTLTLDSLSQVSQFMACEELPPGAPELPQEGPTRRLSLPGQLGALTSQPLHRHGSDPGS

Compound | hERG current change (%, negative = inhibition) at 10uM
Cc1nnc(NC(=O)CSc2nnc(CNC(=O)c3ccc(F)cc3)o2)s1 | 24.3%
Cc1cc(C)n2cc(CSc3ccc(Cl)cc3)nc2n1 | -64.9%
Cc1cc(OCC(=O)Nc2ccccc2N2CCOCC2)c(C(C)C)cc1Cl | 13.6%
O=C(Cc1ccccc1)NNS(=O)(=O)c1ccc(F)cc1 | 20.9%
CCNC(=S)/N=C(/Nc1ccc(OC)cc1)Nc1nc(C)cc(C)n1 | -4.84%
O=C(Nc1cc(=O)[nH]c(=O)[nH]1)c1cccc(Br)c1 | 21.9%
O=C(O)c1[nH]c2ccc(Cl)cc2c1CC(=O)N1CCN(C(=O)c2ccco2)CC1 | 18.4%
Cn1c(-c2ccc(CN3CCCCC3)o2)nc2ccccc21 | -40.2%
c1ccc(C(c2ccccc2)N2CCN(Cc3nnnn3C3CCCCC3)CC2)cc1 | 2.15%
Nc1c(C(O)(C(F)(F)F)C(F)(F)F)cc(C(O)(C(F)(F)F)C(F)(F)F)c2ccccc12 | 17.6%
O=C(CC1CC2CCC1C2)Nc1nc(-c2ccccn2)cs1 (stereo not drawn) | -23.6%
N=c1c2ccccc2nc2n1CCCCCCCCCCC2 | -62%
Cc1cnc(CN(C)C(=O)C2CCC(=O)N(CCc3cccc(F)c3)C2)[nH]1 (stereo not drawn) | 16.1%
CCCCSCCCNC(=O)c1cn(C)c2ccc(S(=O)(=O)N3CCCC3)cc2c1=O | 11.2%
O=C1CCCc2ccccc2N1Cc1ccc(Cl)cc1Cl | -18.2%
O=C(NCCCn1ccnc1)/C(=C\c1ccc(Br)cc1)NC(=O)c1ccccc1F | -74.3%
COc1cccc(C2=NOC(C(=O)Nc3cc(C)on3)C2)c1 (stereo not drawn) | -4.7%
CC(=O)N1c2ccccc2CCc2ccc(N)cc21.Cl | 4.59%
Cc1ccc(C)c(OCC(=O)Nc2ccc(C(=O)O)cc2NC(=O)COc2cc(C)ccc2C)c1 | 7.19%
CC(C)NC(=S)N/N=C/c1ccc(N2CCOCC2)cc1 | 20%
COc1ccc(NC(=O)c2ccc(-c3ccccc3C(F)(F)F)o2)cc1 | 0.954%
Cc1cc(C)n(-c2nc(N(C)C)nc(N3CCOCC3)n2)n1 | -6.78%
O=C(CN1CCN(S(=O)(=O)c2ccc3ccccc3c2)CC1)NC(=O)NC1CCCCC1 | -0.0734%
O=C(Nc1ccc2c(c1)OCO2)[C@@H]1CCCN1S(=O)(=O)c1cccc2cccnc12 | -6.18%
O=c1c2c(O)cc(O)cc2oc2ccc(O)c(O[C@@H]3O[C@H](CO)[C@@H](O)[C@H](O)[C@H]3O[C@H]3O[C@H](CO)[C@@H](O)[C@H](O)[C@H]3O)c12 | 9.28%
CSc1ccccc1NC(=O)CSc1nncs1 | 33.9%
CN(CC(=O)Nc1ccc(Cl)c(Cl)c1)C(=O)CC1OC(=O)c2ccccc21 (stereo not drawn) | -70.3%

Compound | hERG current change (%, negative = inhibition) at 10uM
Cl.O=[N+]([O-])c1ccc(N2CCN(Cc3ccccc3)CC2)nc1 | -59%
COc1ccc(CNc2ccc(C(=O)O)cc2)cc1 | 14.1%
O=C(CN(C(=O)CCC(=O)Nc1nccs1)C1CCCC1)NCc1ccc2c(c1)OCO2 | -3.87%
CCOC(=O)CSc1nnc([C@H](C)NC(=O)OC(C)(C)C)o1 | 7.7%
Cc1ccc(OCCNC(=O)CCc2ccccc2)cc1C | -20.7%
COc1cc(Cl)c(C)cc1NC(=O)CSc1nnc(-c2ccco2)n1CC(C)C | -62.1%
Fc1ccccc1COc1ccc(C(=S)N2CCCC2)cc1 | 13%
COc1ccc(/C=C2/SC(=O)N(CCC(=O)Nc3ccccc3C(=O)O)C2=S)cc1 | 13.5%
Cc1ccc(NC2CCCN(C(=O)c3snnc3C)C2)cc1C (stereo not drawn) | 0.46%
CCn1c(-c2cc(-c3cccc(OC)c3)nc3ccccc23)n[nH]c1=S | 1.56%
OCCC1CN(Cc2cccn2-c2ncccn2)CCN1CCc1ccccc1 (stereo not drawn) | -68.2%
O=C(NNC(=O)c1cccs1)c1ccc(F)cc1 | 26%
COC(=O)c1nnn(-c2ccccc2)c1N | -7.91%
O=C(c1cccc([N+](=O)[O-])c1)N1CCOCC1 | 11.7%
CCOC(=O)N1CCN(Cc2nc3c(c(=O)[nH]c(=O)n3C)n2Cc2cc(C)ccc2C)CC1 | -17.6%
CC1(C(=O)NC(=S)N(CCC#N)c2ccccc2)CC1(Cl)Cl (stereo not drawn) | -5.35%
CN(Cc1ccccc1)C(=O)c1ccccc1NC(=O)C1CC1 | -5.76%
C[C@@H](CN1C2=NC[C@H](Cc3ccc(O)cc3)N2C[C@H]1Cc1ccc(O)cc1)NC(=O)CCC1CCCCC1 | -10.3%
O=C(c1cnn2c(C(F)F)cc(-c3ccccc3)nc12)N1CCc2ccccc2C1 | -15.6%
COc1ccc(N2CCN(C(=O)CSc3nnc4ncccn34)CC2)cc1 | -6.38%
O=C(CCCNS(=O)(=O)c1ccc(F)cc1)Nc1ccc(F)cc1 | 3.97%
COc1ccc(N2C(=O)CC(N3CCC(O)(c4ccc(Br)cc4)CC3)C2=O)cc1 (stereo not drawn) | -29.6%
Cn1ccnc1SCC(=O)N(C1CCCCC1)C1CCCCC1 | 3.29%
CCOc1ccc(-n2cc(C(=O)N3CCCCCC3)c3cc(OC)c(OC)cc3c2=O)cc1 | -9.18%
Cc1ccc2nc(CCl)[n+]([O-])c(-c3ccccc3)c2c1 | 1.16%
Cn1cccc1Cc1nnc(SCC(=O)Nc2cccc(F)c2)n1-c1ccc(F)cc1 | -24.7%
CCC(C)C(NC(=O)C(C)NC(=O)CNC(=O)OC(C)(C)C)C(N)=O (stereo not drawn) (Boc-Gly-Ala-Ile-NH2; configuration not given here) | 22.6%
